# Results from PubChem BioAssay AID504832 (National Center for Advancing Translational Sciences (NCATS), 2011).
# The campaign covered roughly 310,000 compounds. About 18,000 (5.8%) were called active. Inconclusive means that the source gave no clear call. Such entries were picked first, then a sample of the others. Calls follow the shape of the dose curve; as a rule, active = well fitted inhibition curve with a large enough effect; inconclusive = small, poorly fitted or top-dose-only effect, or another doubt; inactive = no such curve, though single readings can be large or run the other way. Potencies of inconclusive entries are left out as doubtful fits.
# Assay: Primary qHTS for delayed death inhibitors of the malarial parasite plastid, 48 hour incubation
# Details: P. falciparum luciferase growth in erythrocytes; series mostly up to 28.7 µM
# Method in brief: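 Growth was read as firefly luciferase luminescence after a 48 h, 37 C, 5% CO2 exposure of compounds to reporter-bearing P. falciparum cultures (0.1% parasitemia, 2% hematocrit final) in Albumax-supplemented RPMI 1640.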
# % is scaled to controls: 0 for no effect and ±100 for the full control effect; potency is read from the fitted curve at half-maximal effect; tags tell the direction and shape of the fitted curve.
Compound,Potency,"activity change, negative = inhibition"
Cc1oc(-c2cc(F)ccc2F)nc1CN1CCN(C)C(=O)[C@@H]1C,"inconclusive [inhibitor, partial curve, poor fit]",
Cc1cc(OCCCCCN2CCCC2)ccc1Cl,"inconclusive [inhibitor, single point]",
O=C(Nc1ccnn1C1CCN(Cc2c(F)cccc2Cl)CC1)C1CCCC1,"inconclusive [inhibitor, single point]",
CSc1ccc(S(=O)(=O)N(CC(=O)NCc2ccccn2)c2ccc(C)cc2)cc1,"inconclusive [inhibitor, single point]",
COc1cc(OC)cc(C(=O)NC(c2ccccc2)c2ccccc2)c1,"inconclusive [inhibitor, single point]",
Cc1cc(C(=O)COC(=O)c2ccc(N)c([N+](=O)[O-])c2)c(C)n1-c1ccc2c(c1)OCO2,active: 13.1 µM,
Cc1ccccc1NC(=S)NC(C)CCc1ccccc1 (centres undefined),"inconclusive [inhibitor, single point]",
CCOc1ccccc1CNC(=O)c1ccc2c(c1)N(CC)CCS2,"inconclusive [inhibitor, partial curve]",
COc1ccc(/C=C/C(=O)c2c(O)c(OC)c3occc3c2OC)cc1,"inconclusive [inhibitor, single point]",
COC(=O)C1=C(c2cccc(C#N)c2)C[C@@H]2CC[C@H]1N2C(=O)NC(C)C,inactive,
COc1cc(NC(=O)c2ccco2)c(OC)cc1NC(=O)Nc1ccccc1Cl,"inconclusive [inhibitor, full curve, poor fit]",
COc1ccc(CCNS(=O)(=O)c2cc3c4c(c2)CC(=O)N4CCC3)cc1,active: 9.28 µM,
Clc1ccc(COc2ccccc2-c2ccnc3ncnn23)cc1,inactive,
COc1ccc(-c2nn(-c3ccccc3)cc2/C=C/C(=O)N2CCOCC2)cc1OC,"inconclusive [inhibitor, partial curve]",
CC(OC(=O)c1ccccc1C(=O)N(C)Cc1ccccc1)C(=O)NC1(C#N)CCCCC1 (centres undefined),active: 10.4 µM,
COc1cc(Cl)c(C)cc1N1C(=O)CN(Cc2ccccc2)C1=S,"inconclusive [inhibitor, partial curve, poor fit]",
COc1ccccc1NS(=O)(=O)c1cc(NC(=O)c2cccs2)ccc1N1CCCC1,"inconclusive [inhibitor, partial curve, poor fit]",
C=CCn1c(SCc2csc(-c3ccc(C)cc3)n2)nnc1-c1ccccc1OC,"inconclusive [inhibitor, single point]",
COc1cc(NC(=O)c2cccnc2Sc2ccc(C)c(C)c2)cc(OC)c1OC,"inconclusive [inhibitor, partial curve, poor fit]",
CN(Cc1c(C(=O)N2CCCCCCC2)nc2ccc(Cl)cn12)C1CCOC1 (centres undefined),inactive,
Cc1ccc(-c2cc(-c3ccccc3)nc(N(C)N)n2)cc1,"inconclusive [inhibitor, single point]",
COC(=O)C1C(O)=C(C(C)=Nc2cccc3ccccc23)C(=O)CC1(C)C (centres undefined),inactive,

Compound,Potency,"activity change, negative = inhibition"
CCN(Cc1ccccc1)C(=O)c1ccc(N(C)S(=O)(=O)c2ccc(C)cc2)cc1,active: 14.7 µM,
CCOC(=O)/C(=N\Nc1ccccc1Cl)N1CCN(c2ccccc2OC)CC1,"inconclusive [inhibitor, single point]",
CC(Oc1ccccc1Cl)C(=O)N(Cc1cccs1)C1CCS(=O)(=O)C1 (centres undefined),"inconclusive [inhibitor, full curve, poor fit]",
CC(C)C[C@H]1C(=O)N2CCCC2[C@]2(O)O[C@](NC(=O)[C@@H]3C=C4c5cccc6[nH]c(Br)c(c56)C[C@H]4N(C)C3)(C(C)C)C(=O)N12 (some centres undefined),active: 3.38 µM,
COc1cc(/C=N/NC(=O)c2nnn(-c3nonc3N)c2C(C)C)ccc1OCc1ccc(F)cc1,"inconclusive [inhibitor, partial curve]",
COc1ccc(CC2(CO)CCN(Cc3cnn(-c4ccc(F)cc4)c3)CC2)cc1,"inconclusive [inhibitor, single point]",
CN1CCN(C(=O)CN(c2cccc(Cl)c2)S(=O)(=O)c2ccccc2)CC1,"inconclusive [inhibitor, full curve, poor fit]",
Fc1ccc(Br)cc1/C=N/N1CCN(c2ccccc2)CC1,inactive,
Cc1ccc(C(=O)N/N=C/c2ccc(-c3ccc(Br)cc3[N+](=O)[O-])o2)o1,active: 9.28 µM,
Cc1ccccc1NC(=O)CSc1nn2c(=O)c(C)nnc2s1,"inconclusive [inhibitor, partial curve]",
CCCCCOc1ccc(NC(=O)C(=O)NCCCn2ccnc2)cc1,inactive,
COc1ccccc1CNC(=O)c1cc(S(=O)(=O)N2CCCC2)cn1C,"inconclusive [inhibitor, partial curve, poor fit]",
CCc1ccc(OCC(O)CN2CCN(c3ccc(OC)cc3)CC2)cc1 (centres undefined),,inactive: -40.2% [at 0.00184 µM]
CCCCN(C(=O)CC(c1ccccc1)c1ccccc1)c1c(N)n(CCC)c(=O)[nH]c1=O,"inconclusive [inhibitor, single point]",
COCCn1c(SCC(=O)NC2(C#N)CCCCC2)nc2ccccc2c1=O,inactive,
Cc1c(S(=O)(=O)N(C)C2CCCCC2)c(=O)n(C)c(=O)n1C,inactive,
CC1CCCN(CC(=O)c2ccc(Cl)c(Cl)c2)C1 (centres undefined),"inconclusive [inhibitor, single point]",
COc1ccc(CCNC2CCN(C)CC2)cc1OC,"inconclusive [inhibitor, partial curve, poor fit]",
CCOC(=O)N1CCN(C/C(C)=C/c2ccccc2)CC1,inactive,
COc1ccc(CNC(=O)CSc2n[nH]c(C)c2[N+](=O)[O-])cc1,inactive,
COc1ccccc1C(=O)COC(=O)Cc1n[nH]c(=O)c2ccccc12,inactive,
CC1=CC(=NOC(=O)/C=C/c2ccccc2)C=C(C)C1=O,"inconclusive [inhibitor, partial curve, poor fit]",
